Experimental data taken from PMC9350387, “Synthetic α‐Helical Peptides as Potential Inhibitors of the ACE2 SARS‐CoV‐2 Interaction” (Chembiochem, 2022).
Non-standard residues stand in square brackets, D forms with d. Residues, ends and D or L forms follow the SMILES beside them. β3hD = NC(CC(=O)O)CC(=O)O

Target: receptor binding domain (RBD) of Spike from wildtype SARS‐CoV‐2 (2019‐nCoV) (Severe acute respiratory syndrome coronavirus 2, UniProt P0DTC2)
Assay: biochemical
Conditions: dash = signal-to-noise below threshold for a binding event, read-out: KD, dissociation constant on SARS‐CoV‐2 spike‐RBD

Row | SMILES | Kd [nM]
1 | CC(=O)N[C@@H](CC(=O)O)CC(=O)N1C[C@H]2/C=C\[C@@H]3CC[C@@H](C(=O)N[C@@H](CCC(=O)O)C(=O)N[C@@H](CCC(N)=O)C(=O)N[C@@H](C)C(=O)N[C@@H](CCCCN)C(=O)N[C@H](C(=O)N[C@@H](Cc4ccccc4)C(=O)N[C@@H](CC(C)C)C(=O)N[C@@H](CC(=O)O)C(=O)N[C@@H](CCCCN)C(=O)N[C@@H](Cc4ccccc4)C(=O)N[C@@H](CC(N)=O)C(=O)N[C@@H](Cc4c[nH]cn4)C(=O)N[C@@H](CCC(=O)O)C(=O)N[C@@H](C)C(=O)N[C@@H](CCC(=O)O)C(=O)N[C@@H](CC(=O)O)C(=O)N[C@@H](CC(C)C)C(=O)N[C@@H](Cc4ccccc4)C(=O)N[C@@H](Cc4ccc(O)cc4)C(=O)N[C@@H](CCC(N)=O)C(=O)N[C@@H](CCCCN)C(N)=O)[C@@H](C)O)N3C(=O)[C@@H]1C2 [P‐2‐1] | 1210 ± 360
2 | CC(=O)N[C@@H](CC(=O)O)CC(=O)N1CCC[C@H]1C(=O)N1CCC[C@H]1C(=O)N[C@@H](CCC(=O)O)C(=O)N[C@@H](CCC(N)=O)C(=O)N[C@@H](C)C(=O)N[C@@H](CCCCN)C(=O)N[C@H](C(=O)N[C@@H](Cc1ccccc1)C(=O)N[C@@H](CC(C)C)C(=O)N[C@@H](CC(=O)O)C(=O)N[C@@H](CCCCN)C(=O)N[C@@H](Cc1ccccc1)C(=O)N[C@@H](CC(N)=O)C(=O)N[C@@H](Cc1c[nH]cn1)C(=O)N[C@@H](CCC(=O)O)C(=O)N[C@@H](C)C(=O)N[C@@H](CCC(=O)O)C(=O)N[C@@H](CC(=O)O)C(=O)N[C@@H](CC(C)C)C(=O)N[C@@H](Cc1ccccc1)C(=O)N[C@@H](Cc1ccc(O)cc1)C(=O)N[C@@H](CCC(N)=O)C(=O)N[C@@H](CCCCN)C(N)=O)[C@@H](C)O [P‐2‐2] (Ac-[β3hD]PPEQAKTFLDKFNHEAEDLFYQK-NH2) | 62 ± 17
